The target of assay [1] is T1, FLAG-UPF1 (wild-type) (human) (UniProt Q92900).
T1 sequence: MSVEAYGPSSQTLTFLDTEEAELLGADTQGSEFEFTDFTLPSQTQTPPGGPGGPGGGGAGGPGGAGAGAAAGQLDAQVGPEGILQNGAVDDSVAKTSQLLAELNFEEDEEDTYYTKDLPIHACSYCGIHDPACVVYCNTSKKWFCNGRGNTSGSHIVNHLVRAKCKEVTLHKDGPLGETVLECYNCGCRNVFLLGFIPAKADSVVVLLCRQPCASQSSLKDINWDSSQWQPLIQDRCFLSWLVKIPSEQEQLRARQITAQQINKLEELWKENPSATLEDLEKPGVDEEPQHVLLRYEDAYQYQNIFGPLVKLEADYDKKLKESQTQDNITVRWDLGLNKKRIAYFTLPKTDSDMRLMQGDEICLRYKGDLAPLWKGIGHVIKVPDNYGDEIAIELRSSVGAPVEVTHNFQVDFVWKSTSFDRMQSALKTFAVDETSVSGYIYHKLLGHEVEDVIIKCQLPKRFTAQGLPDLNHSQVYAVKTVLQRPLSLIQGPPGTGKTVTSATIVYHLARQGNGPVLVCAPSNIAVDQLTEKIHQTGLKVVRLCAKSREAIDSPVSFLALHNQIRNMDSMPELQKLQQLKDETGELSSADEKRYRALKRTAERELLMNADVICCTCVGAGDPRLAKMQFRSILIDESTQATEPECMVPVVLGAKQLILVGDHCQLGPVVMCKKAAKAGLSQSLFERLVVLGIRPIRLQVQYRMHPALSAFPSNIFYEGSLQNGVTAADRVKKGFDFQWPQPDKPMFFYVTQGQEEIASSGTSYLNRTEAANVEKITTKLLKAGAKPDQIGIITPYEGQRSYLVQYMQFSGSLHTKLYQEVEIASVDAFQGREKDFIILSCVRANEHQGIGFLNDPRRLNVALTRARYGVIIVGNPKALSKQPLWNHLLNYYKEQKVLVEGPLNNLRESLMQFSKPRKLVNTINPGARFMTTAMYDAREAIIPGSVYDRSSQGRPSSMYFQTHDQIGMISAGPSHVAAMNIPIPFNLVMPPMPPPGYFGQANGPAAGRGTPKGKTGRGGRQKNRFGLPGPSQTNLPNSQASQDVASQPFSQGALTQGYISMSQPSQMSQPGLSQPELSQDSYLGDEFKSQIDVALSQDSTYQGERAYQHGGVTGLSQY
Kind of assay: co-IP; anti-FLAG IP of transiently transfected FLAG-UPF1 (wild-type or mutants) from HEK293T lysate; endogenous partners by western blot; in the absence or presence of RNase A (Figures 2B, S2B); cells also depleted of DHX34 by shRNA, rescued with T7-DHX34, or cotransfected with T7-DHX34. For orientation: Immunoblotting shows a protein as a band on a membrane.

By UniProt entry, the sequences of proteins in these tests, tags left out.
UniProt P38919: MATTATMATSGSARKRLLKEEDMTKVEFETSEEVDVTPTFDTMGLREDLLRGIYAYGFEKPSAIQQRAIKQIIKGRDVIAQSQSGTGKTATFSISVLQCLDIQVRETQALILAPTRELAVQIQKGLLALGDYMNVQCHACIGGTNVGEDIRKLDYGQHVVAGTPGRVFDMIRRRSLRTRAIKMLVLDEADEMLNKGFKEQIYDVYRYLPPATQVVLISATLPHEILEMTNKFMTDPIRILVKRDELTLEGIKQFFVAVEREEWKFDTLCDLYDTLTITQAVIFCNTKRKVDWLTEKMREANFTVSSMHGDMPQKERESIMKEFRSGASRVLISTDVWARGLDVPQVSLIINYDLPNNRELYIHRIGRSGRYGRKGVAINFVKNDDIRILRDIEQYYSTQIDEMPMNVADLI

The target of assay [2] is T2, FLAG-DHX34 (human) (UniProt Q14147).
T2 sequence: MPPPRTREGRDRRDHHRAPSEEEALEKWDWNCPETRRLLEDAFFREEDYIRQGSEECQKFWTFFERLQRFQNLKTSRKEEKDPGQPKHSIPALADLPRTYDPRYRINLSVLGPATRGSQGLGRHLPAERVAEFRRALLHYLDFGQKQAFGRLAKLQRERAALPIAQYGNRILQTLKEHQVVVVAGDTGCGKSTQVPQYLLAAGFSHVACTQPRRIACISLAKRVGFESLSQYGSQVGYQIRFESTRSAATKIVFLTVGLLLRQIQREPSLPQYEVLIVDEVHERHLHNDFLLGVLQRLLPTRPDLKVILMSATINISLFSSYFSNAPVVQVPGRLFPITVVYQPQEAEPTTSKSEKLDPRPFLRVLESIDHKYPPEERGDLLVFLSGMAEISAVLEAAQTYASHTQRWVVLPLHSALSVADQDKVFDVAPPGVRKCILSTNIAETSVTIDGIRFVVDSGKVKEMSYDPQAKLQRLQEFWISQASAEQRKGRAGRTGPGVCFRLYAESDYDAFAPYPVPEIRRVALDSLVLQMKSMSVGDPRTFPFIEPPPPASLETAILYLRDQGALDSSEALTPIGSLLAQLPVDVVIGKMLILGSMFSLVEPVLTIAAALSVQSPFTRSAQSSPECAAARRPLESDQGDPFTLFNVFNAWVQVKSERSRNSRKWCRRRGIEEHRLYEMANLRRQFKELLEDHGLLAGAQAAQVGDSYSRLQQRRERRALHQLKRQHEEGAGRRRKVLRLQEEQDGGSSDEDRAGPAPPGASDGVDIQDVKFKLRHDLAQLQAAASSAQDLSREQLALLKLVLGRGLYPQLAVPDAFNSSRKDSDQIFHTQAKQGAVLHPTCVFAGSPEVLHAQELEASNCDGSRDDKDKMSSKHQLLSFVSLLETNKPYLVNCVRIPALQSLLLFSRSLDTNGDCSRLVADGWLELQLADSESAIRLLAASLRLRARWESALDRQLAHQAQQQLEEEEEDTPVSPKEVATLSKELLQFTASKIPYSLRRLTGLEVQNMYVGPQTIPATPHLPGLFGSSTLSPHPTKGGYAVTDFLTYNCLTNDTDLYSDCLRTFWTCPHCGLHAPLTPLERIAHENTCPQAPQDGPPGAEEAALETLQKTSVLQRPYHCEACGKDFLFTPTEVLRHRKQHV
Kind of assay: co-IP; anti-FLAG IP of transiently transfected FLAG-DHX34 from HEK293T lysate, in the absence or presence of RNase A; endogenous partners by western blot.

These are yes or no findings as the source states them, for the method shown. Binding seen in cells or lysates may run through a third protein. Some binding calls cover weakened binding; strength is not graded here. Tags and fused reporters may be left off the sequences shown.

Take “EJC component eIF4A3 (from UniProt P38919 1-411)”: the binding result in assay [1] and in assay [2] was “binds” each time.

B1: SMG9 (protein, UniProt Q9H0W8 1-520)
chain: MSESGHSQPGLYGIERRRRWKEPGSGGPQNLSGPGGRERDYIAPWERERRDASEETSTSVMQKTPIILSKPPAERSKQPPPPTAPAAPPAPAPLEKPIVLMKPREEGKGPVAVTGASTPEGTAPPPPAAPAPPKGEKEGQRPTQPVYQIQNRGMGTAAPAAMDPVVGQAKLLPPERMKHSIKLVDDQMNWCDSAIEYLLDQTDVLVVGVLGLQGTGKSMVMSLLSANTPEEDQRTYVFRAQSAEMKERGGNQTSGIDFFITQERIVFLDTQPILSPSILDHLINNDRKLPPEYNLPHTYVEMQSLQIAAFLFTVCHVVIVVQDWFTDLSLYRFLQTAEMVKPSTPSPSHESSSSSGSDEGTEYYPHLVFLQNKARREDFCPRKLRQMHLMIDQLMAHSHLRYKGTLSMLQCNVFPGLPPDFLDSEVNLFLVPFMDSEAESENPPRAGPGSSPLFSLLPGYRGHPSFQSLVSKLRSQVMSMARPQLSHTILTEKNWFHYAARIWDGVRKSSALAEYSRLLA
Regarding B1, the binding entry in assay [1] and in assay [2] was “binds” throughout.

B2: SMG7 (protein, UniProt Q92540 1-1137)
chain: MSLQSAQYLRQAEVLKADMTDSKLGPAEVWTSRQALQDLYQKMLVTDLEYALDKKVEQDLWNHAFKNQITTLQGQAKNRANPNRSEVQANLSLFLEAASGFYTQLLQELCTVFNVDLPCRVKSSQLGIISNKQTHTSAIVKPQSSSCSYICQHCLVHLGDIARYRNQTSQAESYYRHAAQLVPSNGQPYNQLAILASSKGDHLTTIFYYCRSIAVKFPFPAASTNLQKALSKALESRDEVKTKWGVSDFIKAFIKFHGHVYLSKSLEKLSPLREKLEEQFKRLLFQKAFNSQQLVHVTVINLFQLHHLRDFSNETEQHTYSQDEQLCWTQLLALFMSFLGILCKCPLQNESQEESYNAYPLPAVKVSMDWLRLRPRVFQEAVVDERQYIWPWLISLLNSFHPHEEDLSSISATPLPEEFELQGFLALRPSFRNLDFSKGHQGITGDKEGQQRRIRQQRLISIGKWIADNQPRLIQCENEVGKLLFITEIPELILEDPSEAKENLILQETSVIESLAADGSPGLKSVLSTSRNLSNNCDTGEKPVVTFKENIKTREVNRDQGRSFPPKEVRRDYSKGITVTKNDGKKDNNKRKTETKKCTLEKLQETGKQNVAVQVKSQTELRKTPVSEARKTPVTQTPTQASNSQFIPIHHPGAFPPLPSRPGFPPPTYVIPPPVAFSMGSGYTFPAGVSVPGTFLQPTAHSPAGNQVQAGKQSHIPYSQQRPSGPGPMNQGPQQSQPPSQQPLTSLPAQPTAQSTSQLQVQALTQQQQSPTKAVPALGKSPPHHSGFQQYQQADASKQLWNPPQVQGPLGKIMPVKQPYYLQTQDPIKLFEPSLQPPVMQQQPLEKKMKPFPMEPYNHNPSEVKVPEFYWDSSYSMADNRSVMAQQANIDRRGKRSPGVFRPEQDPVPRMPFEKSLLEKPSELMSHSSSFLSLTGFSLNQERYPNNSMFNEVYGKNLTSSSKAELSPSMAPQETSLYSLFEGTPWSPSLPASSDHSTPASQSPHSSNPSSLPSSPPTHNHNSVPFSNFGPIGTPDNRDRRTADRWKTDKPAMGGFGIDYLSATSSSESSWHQASTPSGTWTGHGPSMEDSSAVLMESLKSIWSSSMMHPGPSALEQLLMQQKQKQQRGQGTMNPPH
B2: the binding entry in assay [1] and in assay [2] was “binds” in each case.

B3: endogenous UPF3b (protein, UniProt Q9BZI7 1-483)
chain: MKEEKEHRPKEKRVTLLTPAGATGSGGGTSGDSSKGEDKQDRNKEKKEALSKVVIRRLPPTLTKEQLQEHLQPMPEHDYFEFFSNDTSLYPHMYARAYINFKNQEDIILFRDRFDGYVFLDNKGQEYPAIVEFAPFQKAAKKKTKKRDTKVGTIDDDPEYRKFLESYATDNEKMTSTPETLLEEIEAKNRELIAKKTTPLLSFLKNKQRMREEKREERRRREIERKRQREEERRKWKEEEKRKRKDIEKLKKIDRIPERDKLKDEPKIKVHRFLLQAVNQKNLLKKPEKGDEKELDKREKAKKLDKENLSDERASGQSCTLPKRSDSELKDEKPKRPEDESGRDYREREREYERDQERILRERERLKRQEEERRRQKERYEKEKTFKRKEEEMKKEKDTLRDKGKKAESTESIGSSEKTEKKEEVVKRDRIRNKDRPAMQLYQPGARSRNRLCPPDDSTKSGDSAAERKQESGISHRKEGGEE
Regarding B3, the binding result in assay [1] is listed as “binds”.

B4: endogenous DHX34 (protein, UniProt Q14147 1-1143)
chain: T2 sequence
For B4, in assay [1], the binding result was “binds”.

The record behind these values is paper PMC4534575, “The RNA Helicase DHX34 Activates NMD by Promoting a Transition from the Surveillance to the Decay-Inducing Complex” (Cell Reports, 2014).
